From PubChem BioAssay AID889 (National Center for Advancing Translational Sciences (NCATS), 2007)
The whole screen tested about 75,000 compounds, of which about 15 (0.02%) were called active. The shares of active, inactive and inconclusive entries below differ from those in the screen. The call rests on the fitted dose curve; in most records, active means well fitted inhibition curve with a large enough effect in the main read-out, with a control signal flat (not every such curve was filed as active); inconclusive means small, poorly fitted or top-dose-only effect, or a change in a side signal; inactive means flat fitted curve, though single readings scatter. Where the call is inconclusive, the potency comes from a doubtful curve fit. “Side channel” marks fits to a control or component signal instead of the main read-out.

biological target: Caspase-7 (Homo sapiens) (UniProt P55210); assay: qHTS Assay for Allosteric/Competitive Inhibitors of Caspase-7; conditions: recombinant caspase-7, Ac-DEVD-AFC fluorescence rate; activity change, negative = inhibition: at 57.5 µM (top of the series) unless noted; on activity change, negative = inhibition: % of control where 0% means no effect
Potency means the concentration at half of the fitted maximal effect; tags describe the fitted curve by direction and shape or compound fluorescence and quenching.

UniProt P55210, sequence (P55210 whole entry, looked up): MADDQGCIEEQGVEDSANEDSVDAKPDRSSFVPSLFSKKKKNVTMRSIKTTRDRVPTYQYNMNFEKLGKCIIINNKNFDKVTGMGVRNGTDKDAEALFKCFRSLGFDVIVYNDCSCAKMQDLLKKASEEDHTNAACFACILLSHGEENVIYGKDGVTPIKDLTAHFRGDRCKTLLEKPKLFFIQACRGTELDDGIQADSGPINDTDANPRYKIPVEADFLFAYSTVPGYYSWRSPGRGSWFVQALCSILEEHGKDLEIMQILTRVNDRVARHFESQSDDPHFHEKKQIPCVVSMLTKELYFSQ

Question: For `COC(=O)c1c(N)n(-c2ccc(NC(C)=O)cc2)c2nc3ccccc3nc12`, which Potency is on record?
Answer: inconclusive: 15.8 µM [fluorescent, side channel, partial curve]

Question: How did the Potency turn out when `N#CC1=C(N)C2=C(N3CCCCC3)CCCC2C1(C#N)C#N` (stereo unspecified) was run?
Answer: inconclusive: 25.1 µM [inhibitor, single point]

Question: Which “activity change, negative = inhibition” value does the source give for `CC1(c2ccncc2)Nc2ccccc2-c2nc3ccccc3n21` (stereo unspecified) here?
Answer: inactive: -4.78%

Question: `COc1ccc(C2C(C#N)=C(C)NC3=C2C(=O)CC(C)(C)C3)c(OC)c1` (stereo unspecified) was tested. Which Potency did it give?
Answer: inconclusive: 20 µM [fluorescent, side channel, partial curve]

Question: For `COCCn1c(=O)c(-c2cccs2)nc2cnc(OC)nc21`, which Potency is on record?
Answer: inconclusive: 2 µM [fluorescent, side channel, full curve]

Question: For `CCCn1c(CCC(=O)O)ccc1-c1cccs1`, which Potency is on record?
Answer: inconclusive: 25.1 µM [fluorescent, partial curve]

Question: With `COCCCn1c(=N)c(C(=O)NCC2CCCO2)cc2c(=O)n3cccc(C)c3nc21` (stereo unspecified) as the compound, how does the Potency read?
Answer: inconclusive: 2 µM [fluorescent, side channel, full curve]

Question: How did the “activity change, negative = inhibition” value turn out when `COc1ccc(-n2c(=O)c(-c3cccc(F)c3)nc3cncnc32)cc1` was run?
Answer: inactive: -4.6%

Question: For `COC(=O)CSc1nc(N2CCOCC2)c2c(c1C#N)CC(C)(C)N(C)C2`, which Potency is on record?
Answer: inconclusive: 3.16 µM [fluorescent, full curve]

Question: `CN1CCN(c2ncnc3ccc(-c4cccc(NS(C)(=O)=O)c4)cc23)CC1` was tested. Which “activity change, negative = inhibition” value did it give?
Answer: inactive: -0.0211%

Question: With `CC1CCCN(c2nc3ccccc3nc2C(C#N)S(=O)(=O)c2ccccc2)C1` (stereo unspecified) as the compound, how does the Potency read?
Answer: inconclusive: 25.1 µM [inhibitor, single point]

Question: For `COc1ccc(S(=O)(=O)Nc2cc(Cl)ccc2OC)cc1`, which “activity change, negative = inhibition” value is on record?
Answer: inactive: 0.652%

Question: `COc1ccccc1CCn1c(=O)c(-c2cccs2)nc2cncnc21` was tested. Which Potency did it give?
Answer: inconclusive: 25.1 µM [fluorescent, partial curve]

Question: For `COc1cccc(OCC(O)CN(CCO)Cc2ccccc2)c1` (stereo unspecified), which “activity change, negative = inhibition” value is on record?
Answer: inactive: -0.393%

Question: For `CCCN1CC=C2C(C#N)=C(N)C(C#N)(C#N)C(c3cccc(OC)c3OC)C2C1` (stereo unspecified), which Potency is on record?
Answer: inconclusive: 12.6 µM [fluorescent, partial curve]

Question: With `COc1ccc(C2NC3=C(CCCC3)C(C#N)(C#N)C2(C#N)C#N)cc1` (stereo unspecified) as the compound, how does the Potency read?
Answer: inconclusive: 31.6 µM [inhibitor, single point]

Question: How did the Potency turn out when `COC(=O)C1=C(C)NC2=C(C(=O)CCC2)C1c1ccccn1` (stereo unspecified) was run?
Answer: inconclusive: 15.8 µM [fluorescent, side channel, partial curve]

Question: With `FC(F)(F)c1ccccc1-c1ccc2ncnc(NCCN3CCOCC3)c2c1` as the compound, how does the “activity change, negative = inhibition” value read?
Answer: inactive: -2.5%

Question: For `COc1ccc(-c2nc3cnc(Nc4cccc(OC)c4)nc3n(C3CC3)c2=O)cc1`, which Potency is on record?
Answer: inconclusive: 1.26 µM [inhibitor, partial curve]

Question: How did the Potency turn out when `CC(C)(C)n1nnnc1C(c1cc2cc3c(cc2[nH]c1=O)OCO3)N1CCN(c2ccccc2)CC1` (stereo unspecified) was run?
Answer: inconclusive: 25.1 µM [inhibitor, single point]

Question: How did the Potency turn out when `COc1ccc(-c2nc3cnc(Oc4ccccc4)nc3n(Cc3cccs3)c2=O)cc1` was run?
Answer: inconclusive: 3.16 µM [fluorescent, full curve]

Question: For `N#CCCn1c(=O)c(-c2cccs2)nc2cnc(N3CCOCC3)nc21`, which Potency is on record?
Answer: inconclusive: 1.26 µM [fluorescent, side channel, full curve]

Question: Which Potency does the source give for `Cc1ccc(C2C=C(c3ccc4c(c3)OCO4)Nc3ncnn32)cc1` (stereo unspecified) here?
Answer: inconclusive: 31.6 µM [fluorescent, partial curve]

Question: Which Potency does the source give for `COc1cccc(Nc2ncc3nc(-c4ccccc4)c(=O)n(C4CC4)c3n2)c1` here?
Answer: inconclusive: 3.98 µM [fluorescent, side channel, partial curve]

Question: `O=C(Cn1c(=O)oc2ccccc21)N1CCN(c2ccc(N3CCOCC3)nn2)CC1` was tested. Which Potency did it give?
Answer: inconclusive: 31.6 µM [inhibitor, single point]

Question: With `COc1ccc(OC)c(N=Cc2c(O)[nH]c3ccccc23)c1` as the compound, how does the Potency read?
Answer: inconclusive: 15.8 µM [fluorescent, side channel, partial curve]

Question: With `CCn1c(=N)c(C(=O)NCc2cccnc2)cc2c(=O)n3cccc(C)c3nc21` as the compound, how does the Potency read?
Answer: inconclusive: 3.16 µM [fluorescent, side channel, full curve]

Question: For `CCN(CC)c1ccc2c(Cl)c(Br)c(=O)oc2c1`, which Potency is on record?
Answer: inconclusive: 39.8 µM [fluorescent, side channel, single point]

Question: For `Cc1cc(N2CCCCC2)n2ncc(-c3ccccc3)c2n1`, which Potency is on record?
Answer: inconclusive: 31.6 µM [inhibitor, single point]

Question: `CCOC(=O)N1CCN(C(=O)Nc2ccc3nc(-c4ccccn4)c(-c4ccccn4)nc3c2)CC1` was tested. Which Potency did it give?
Answer: inconclusive: 15.8 µM [fluorescent, partial curve]

Question: `O=C(NCc1ccco1)c1cnn2c(C(F)(F)F)cc(-c3ccccc3)nc12` was tested. Which Potency did it give?
Answer: inconclusive: 25.1 µM [inhibitor, single point]

Question: `O=C(Nc1ccc(F)cc1)C1CCCCC1` was tested. Which “activity change, negative = inhibition” value did it give?
Answer: inactive: -0.274%

Question: `CCN(CC)C(=O)C1CCCN(C(=O)Nc2ccc3nsnc3c2)C1` (stereo unspecified) was tested. Which Potency did it give?
Answer: inconclusive: 31.6 µM [inhibitor, single point]

Question: `Nc1ccc2c(c1)-c1ccccc1S(=O)(=O)N2` was tested. Which Potency did it give?
Answer: inconclusive: 25.1 µM [fluorescent, partial curve]

Question: How did the Potency turn out when `Nc1ccc2nn(-c3cccc4ccccc34)nc2c1` was run?
Answer: inconclusive: 31.6 µM [fluorescent, side channel, single point]

Question: How did the Potency turn out when `Cc1ccc2nc3c(cc(C#N)c(=O)n3CC3CCCO3)c(=O)n2c1` (stereo unspecified) was run?
Answer: inconclusive: 1.26 µM [fluorescent, side channel, full curve]

Question: Which “activity change, negative = inhibition” value does the source give for `CCOc1ccc(Br)cc1S(=O)(=O)Nc1ccccc1N1CCOCC1` here?
Answer: inactive: 3.59%

Question: How did the activity change, negative = inhibition turn out when `Cc1ccc(S(=O)(=O)Nc2ccccc2C(=O)c2ccc(C)c(C)c2)cc1` was run?
Answer: inactive: -3.34% [at 11.5 µM]

Question: Which Potency does the source give for `O=C(Nc1ccccc1)c1ccc2nc(-c3ccco3)c(-c3ccco3)nc2c1` here?
Answer: inconclusive: 15.8 µM [inhibitor, partial curve]

Question: With `COc1cccc(-c2nccc(NCc3cccnc3)n2)c1` as the compound, how does the “activity change, negative = inhibition” value read?
Answer: inactive: -1.45%

Question: Which Potency does the source give for `COc1ccc(/C=C/C(O)=C2/C(=O)N(C)C3(C)CC2c2ccccc2O3)cc1` (stereo unspecified) here?
Answer: inconclusive: 31.6 µM [fluorescent, side channel, single point]
